Measured values: the RNAGym collection of RNA variant scans (doi:10.7554/elife.90254)
The source gives no read counts; variants with many changes may rest on few reads.

B1: LINE1-mini (parent)
chain: GGCAGAGCUCAACACAGCGUGGCAAAGUGGCUGUGGCUAGACUGCC

Variants of: B1
Experiment: self-cleavage, relative activity (ratio to wild type); higher = more cleavage; in vitro, sequencing; the parent is a self-cleaving ribozyme

| Variant | self-cleavage |
| --- | --- |
| GGAAGGGCCUAACACAGGGUGGCAAAGUGGCUGUGGCUAGACUGGC [C3A A6G U9C C10U C18G C45G] | 0.01 |
| GGCAAAGGUCAACACAGCGUGGCAAAGGCGCUGUGGCUAGACUGCC [G5A C8G U28G G29C] | 0.07 |
| GGCAUAGCGGAACACAGCCUGGCAAAGUGGCUGUGGCUAGACUGCC [G5U U9G C10G G19C] | 0.01 |
| GGCAGAGACGAACACAGCUUGGCAAAGUGGCUCUGGCUAGACUGCC [C8A U9C C10G G19U G33C] | 0.01 |
| GGCGGAGCUCAACACCGCAUGGCAAAGUGGUUGUGGCUAGACUGCC [A4G A16C G19A C31U] | 0.12 |
| GGCAGAGCUCAACCCGGCGUGGCAGAGUGGCUGUUGCUAGACUGCC [A14C A16G A25G G35U] | 0.07 |
| GGCAGAGCUCAACACAGCUUUGCAAAGUGGCUGUGGUUAGACUGCC [G19U G21U C37U] | 0.02 |
| GGCAGAGCUCAACACAGCGUGGAAAACUGGAUGUUGCUAGACUGCC [C23A G27C C31A G35U] | 0.01 |
| CGCAGAGCUCAACACAGCGUGGCAAAGUAGCUGUGGCUAGACUCGC [G1C G29A G44C C45G] | 0.02 |
| GACAGAGCACAACAAAGCGUGGCAAAGUGGCUGUGGCUAGAAUGCC [G2A U9A C15A C42A] | 0.72 |
| GGUAGAGCUCAACACAGUGUGGCAAAGUCGCUGUGGCGAGACUGCC [C3U C18U G29C U38G] | 0 |
| GGUAGAGCUCAACACAGCGUGGCAUGGUGGCUGUGGCUAGACUCCC [C3U A25U A26G G44C] | 0.14 |
| GGCAGAGCUCAACACCGCGUGGGAAAGGGGCUGUGGCUAGACUGCC [A16C C23G U28G] | 0.06 |
| GGCAGAGCUAAACACAGCGUGGCAGAGUGGCUGUGGCUAGACUGCG [C10A A25G C46G] | 0 |
| GACAGAGCUCAACACAGCGCGGCCAAGUGGCUGUGGCUAGGCUGCC [G2A U20C A24C A41G] | 0.15 |
| GGCAGAGCCUUACACAGCGUGCCAAAGUGGCUGUGGCUUGAGUGCC [U9C C10U A11U G22C A39U C42G] | 0.01 |
| GGCCGAGCUCAAAACAGCGUGGCAAAGUGGCUGUGUCUAGACUGCC [A4C C13A G36U] | 1.39 |
| GGCAGAGAUCAACACAGCGUGGCAAAGUGGCUGUGGCUAGAGUGAC [C8A C42G C45A] | 0.06 |
| GGCAGAUCUAAACACAGCGUGGCAAAGUGGCUGGGGCAAGACUGCC [G7U C10A U34G U38A] | 0.01 |

| Variant | self-cleavage |
| --- | --- |
| UGCAGAGCUCACCACAGAGUGGCAAACUGGCUGUGGCUAUACUCCC [G1U A12C C18A G27C G40U G44C] | 0 |
| GGCAGAGCUCAACACAGCGUGGGAAAUUGGCUGUAGCUAUACUGCC [C23G G27U G35A G40U] | 0.13 |
| AGCAGAGCUCAACACAGCGUGGCAAAGUCGCUGUGGCUACACUGCC [G1A G29C G40C] | 0.03 |
| GGCAGACCUCAAAACAUCGUGGCAAUGUGGCUGUGGCUAGACUGCC [G7C C13A G17U A26U] | 0.01 |
| GACAAAGCUCAACACAGCGUGGCAAAGUGGCCGUGGCUAGACUGCC [G2A G5A U32C] | 0.28 |
| GGCAGAGGUCAACACAUCGUGGCAAAGCGGCUGUGGCUAGACUGCC [C8G G17U U28C] | 0.01 |
| GGCAGGGCUCAUCACAGCGUGGCAAAGUUGCUGUGGCUAGACUGCG [A6G A12U G29U C46G] | 0.02 |
| GGCAUAGCUCAACACAGCGUGGCAAAGAAGCUGUGGCUAGACUGCC [G5U U28A G29A] | 0.07 |
| GGCAGAGCUGAACACGGCGUGGCAAAGUAGCUGUGGCUAGACUGAC [C10G A16G G29A C45A] | 0.06 |
| GGCAGAGCUCAACACAGCGUGGCAAAGUGGCUGUCUCUAGGCUGCC [G35C G36U A41G] | 0.12 |
| GGCAGAGCUCAACACAUCGUGGCAAAGUGGCUGUGCCUAGACGGCC [G17U G36C U43G] | 0 |
| GGCAGGGCUAAACACAGCGUGGCACAGUGGCUGUGACUAGACUGCC [A6G C10A A25C G36A] | 0.02 |
| GGCAGAGUUCAGCACAGCGUUGCAAAGUGGCUGUGGCUAUACUCCC [C8U A12G G21U G40U G44C] | 0.12 |
| GGCAGAGCUCAAAACAGCGUGGCAAAGUGGCUGUGGGCAGACUGCC [C13A C37G U38C] | 0.09 |
| GGCAAAGCUCAACACAACGUGGCAAAGUGUCUGUGGCUAGACUGCC [G5A G17A G30U] | 0.08 |
| CGCAGAGAUCAAUACAGCGUGACAAAGUGGUUGUGGCUAGACUGCC [G1C C8A C13U G22A C31U] | 0.04 |
| CGCAGAGUUCAACACAGCGUGGCAAAGUGGCUGUGGCUUGGCUGCC [G1C C8U A39U A41G] | 0.01 |
| GGCAGAGCUCAACACAGCCAAGCAAAGUUGCUGUGGUUAGACUGCC [G19C U20A G21A G29U C37U] | 0.01 |
| GGCAGAGCUCACCACAUCGUGGCAAAGUGACUGUGGCUAGACUGCC [A12C G17U G30A] | 0.02 |

| Variant | self-cleavage |
| --- | --- |
| UUCAGAGCUCAACACAGCGUGGCAAAGUGGCUGUGGGUAGGCUGCG [G1U G2U C37G A41G C46G] | 0 |
| UGCAGAACUCAACACAGCGUGGCAAAGUGGCUGUGGUCAGACUGCC [G1U G7A C37U U38C] | 0.11 |
| GGCAGAGCUGAACACCGCGUGGCGAAGUGGCUGUGGCUAUACUGCC [C10G A16C A24G G40U] | 0.02 |
| GGCAGUGCUCAACACAGCGUAGCAAGGUGGCUGGGGCUAGACUGCC [A6U G21A A26G U34G] | 0.13 |
| GGCAGAGCUCAACCCAACGUGGCAAAGUGGCUCUGUCUAGACUGCC [A14C G17A G33C G36U] | 0.02 |
| GGCAGAGCUCAAGAAAGCGUGGCAAAGUGGCUGUGGCUAUACUGCC [C13G C15A G40U] | 0.13 |
| GGCAGAGCUCAAUUCCGCAUGGCAAAGUGGCUGUGGCUAGACUGGC [C13U A14U A16C G19A C45G] | 0.06 |
| GGCGGAGCUCUACACAGCGUGGCAAAGUGGCUGUGACUAGACUGCC [A4G A11U G36A] | 0.04 |
| GGCAGAGCUCAAAACAGCGUGACAAAGUGGCCGUGGCUAGACUGCC [C13A G22A U32C] | 0.1 |
| GGCAGAGCUCAACACAGAGUGACAAAGUGGCUGUGGCUAGACAGCC [C18A G22A U43A] | 0.04 |
| CGCAGAGCUCAACGCAUCGUGGCAAAGUGGCUGUGGCUAGACUGCC [G1C A14G G17U] | 0.04 |
| GGCAGAGCUGAACACAGCGUGGCAAAGUGUCUGUGUCUAGACUGCC [C10G G30U G36U] | 0.01 |
| GGCAGAGCUCAACACAGCGUGGCAACGUGGCCGUGGCUAGACGGCC [A26C U32C U43G] | 0 |
| GGCAGAGCUAAACACAGCUUGGCAAAGUGGCUGUAGCUAGACUGCC [C10A G19U G35A] | 0.01 |
| GGCAGAGCUCAACACAGCGUGGCAAUGUGGCUGUGAUUAGACUGCC [A26U G36A C37U] | 0.04 |
| UGCAGAGCUCAACACAGCGUGGCAAAGUGACUGAGGCUAGACUGCC [G1U G30A U34A] | 0.09 |
| GGCUGAGCUCAGCACAGCGUGGCAUAGUGGCUGUGGCUAUACUGCC [A4U A12G A25U G40U] | 0.02 |
| GGCAGAGCUCAACAAAGCGUGAUUAAGUGGCUGUGGCUACACUGCC [C15A G22A C23U A24U G40C] | 0.04 |
